PMC10657365, “Loss of SMURF2 expression enhances RACK1 stability and promotes ovarian cancer progression” (Cell Death and Differentiation, 2023)

Biological target: Myc-tagged full-length (FL) RACK1 (UniProt P63244)
Test: pull-down; GST, GST-SMURF2 or GST-SMURF2 C716A on glutathione-Sepharose 4B beads mixed with Myc-RACK1 for 2 h at 4 °C, washed with GST binding buffer, immunoblot
Settings: both partners purified

B1: GST-SMURF2 C716A (enzyme)
chain: not shown
notes: SMURF2 with C716A, as a GST fusion; source: E. coli BL21 (DE3), purified on glutathione-Sepharose 4B
  binding result: binds
